Reference: the supplement of paper PMC6531468
This is one part of the list. These are enrichments in a pooled selection; single values are uncertain. Each score is taken over the longer molecules that contain the sequence shown.

How the values were obtained:
Test in all cases: 6-mer SELEX enrichment z-score vs GST control; IMP3 is the RNA-binding protein IGF2BP3; higher = more enriched by binding
[1] = system: IMP3 KH1-4; settings: construct: KH1-4 (164-579); SELEX round: R4
Method: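 SELEX-seq with GST-tagged IMP3 KH1-4 (Pro164-Lys579) and an N40 RNA pool, round 4. 6-mer z-score of sequence-tag enrichment normalised to the corresponding GST SELEX round; RNA k-mers written as DNA (T for U).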

[2] = system: IMP3 RRM1-2; settings: construct: RRM1-2 (1-163); SELEX round: R2
Chain of IMP3 RRM1-2 (chain, as listed by the source): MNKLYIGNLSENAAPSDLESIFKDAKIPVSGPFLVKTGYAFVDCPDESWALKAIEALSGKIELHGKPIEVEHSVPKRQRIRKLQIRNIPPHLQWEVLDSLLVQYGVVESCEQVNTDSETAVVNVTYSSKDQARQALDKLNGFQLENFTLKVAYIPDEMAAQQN
Method: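 SELEX-seq with GST-tagged IMP3 RRM1-2 (Met1-Asn163) and an N40 RNA pool, round 2. 6-mer enrichment z-score normalised to GST SELEX. RNA written as DNA (T = U).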

[3] = target: IMP3 full-length (UniProt O00425); settings: construct: FL IMP3 (1-579); SELEX round: R4
Chain of UniProt O00425 (O00425 whole entry): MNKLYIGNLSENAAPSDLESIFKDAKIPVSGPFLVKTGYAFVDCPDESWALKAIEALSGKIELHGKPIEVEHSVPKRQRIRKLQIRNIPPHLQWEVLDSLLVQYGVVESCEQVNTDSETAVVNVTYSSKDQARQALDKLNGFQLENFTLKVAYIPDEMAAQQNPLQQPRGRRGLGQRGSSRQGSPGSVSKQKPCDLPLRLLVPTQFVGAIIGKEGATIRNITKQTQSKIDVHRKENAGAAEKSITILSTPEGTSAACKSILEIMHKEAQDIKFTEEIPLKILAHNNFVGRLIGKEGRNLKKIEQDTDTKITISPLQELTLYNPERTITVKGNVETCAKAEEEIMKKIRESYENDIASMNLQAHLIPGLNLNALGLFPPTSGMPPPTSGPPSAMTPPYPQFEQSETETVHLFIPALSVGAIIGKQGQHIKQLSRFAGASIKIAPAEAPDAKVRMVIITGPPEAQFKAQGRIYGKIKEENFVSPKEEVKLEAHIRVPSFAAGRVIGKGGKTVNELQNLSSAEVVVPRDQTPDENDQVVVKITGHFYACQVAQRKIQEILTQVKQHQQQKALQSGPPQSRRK
Method: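 SELEX-seq with GST-tagged full-length IMP3 and an N40 RNA pool, round 4. Each 6-mer is scored as an enrichment z-score of sequence tags containing it, normalised to the matching GST SELEX round. RNA written as DNA (T = U).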

[4] = system: IMP3 KH1-2; settings: construct: KH1-2 (164-376); SELEX round: R4
Chain of IMP3 KH1-2 (chain, as listed by the source): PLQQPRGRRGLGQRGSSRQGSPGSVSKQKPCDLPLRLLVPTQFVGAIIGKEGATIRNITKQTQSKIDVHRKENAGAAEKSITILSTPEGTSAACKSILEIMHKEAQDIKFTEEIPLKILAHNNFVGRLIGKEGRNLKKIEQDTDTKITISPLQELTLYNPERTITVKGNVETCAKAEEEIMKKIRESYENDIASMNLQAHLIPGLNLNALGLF
Method: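 SELEX-seq with GST-tagged IMP3 KH1-2 (Pro164-Phe376) and an N40 RNA pool, round 4 (stringent 300/600 mM KCl washes). 6-mer z-score of sequence-tag enrichment normalised to the corresponding GST SELEX round; RNA k-mers written as DNA (T for U).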

[5] = system: IMP3 KH3-4; settings: construct: KH3-4 (377-579); SELEX round: R4
Chain of IMP3 KH3-4 (chain, as listed by the source): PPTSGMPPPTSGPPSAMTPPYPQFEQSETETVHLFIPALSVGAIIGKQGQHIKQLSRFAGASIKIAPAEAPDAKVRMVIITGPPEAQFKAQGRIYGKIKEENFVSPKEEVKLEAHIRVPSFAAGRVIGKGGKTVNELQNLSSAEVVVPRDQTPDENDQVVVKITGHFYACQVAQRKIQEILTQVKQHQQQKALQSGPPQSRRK
Method: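 SELEX-seq with GST-tagged IMP3 KH3-4 (Pro377-Lys579) and an N40 RNA pool, round 4. 6-mer z-score of sequence-tag enrichment normalised to the corresponding GST SELEX round; RNA k-mers written as DNA (T for U).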

Chain of IMP3 KH1-4 (chain, as listed by the source): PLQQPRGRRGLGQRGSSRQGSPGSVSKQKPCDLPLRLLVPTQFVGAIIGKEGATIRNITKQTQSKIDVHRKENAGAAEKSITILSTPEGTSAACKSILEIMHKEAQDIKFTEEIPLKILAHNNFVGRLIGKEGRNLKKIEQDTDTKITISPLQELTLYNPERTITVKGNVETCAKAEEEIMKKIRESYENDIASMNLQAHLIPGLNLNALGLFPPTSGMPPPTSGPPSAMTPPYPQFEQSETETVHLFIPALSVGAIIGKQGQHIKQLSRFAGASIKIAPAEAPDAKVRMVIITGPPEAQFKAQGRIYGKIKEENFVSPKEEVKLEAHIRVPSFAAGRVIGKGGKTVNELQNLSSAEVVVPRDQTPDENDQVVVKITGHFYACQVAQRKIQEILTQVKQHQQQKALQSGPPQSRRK

| Sequence | 6-mer SELEX enrichment z-score [1] | 6-mer SELEX enrichment z-score [2] | 6-mer SELEX enrichment z-score [3] | 6-mer SELEX enrichment z-score [4] | 6-mer SELEX enrichment z-score [5] |
| --- | --- | --- | --- | --- | --- |
| GGTGTA | -0.504 | 0.165 | -0.215 | -0.411 | -0.228 |
| CTCAGG | -0.414 | 0.455 | 0.379 | -0.259 | -0.359 |
| GCTGCG | -0.218 | 0.202 | 0.094 | -0.12 | -0.132 |
| CCTACT | -0.344 | -0.119 | -0.579 | -0.181 | -0.418 |
| GCCTAT | 0.024 | -0.003 | -0.111 | 0.017 | 0.137 |
| GATTTC | 0.294 | 0.076 | -0.068 | 0.33 | 0.336 |
| GCCGTG | -0.29 | -0.272 | 0.066 | -0.279 | -0.376 |
| TTTATA | 1.29 | 0.228 | 0.357 | 1.28 | 2.07 |
| ATTACC | -0.094 | -0.391 | -0.466 | -0.1 | -0.306 |
| CTCCAC | -0.021 | 0.285 | -0.053 | 0.092 | -0.801 |
| TTGGTT | -0.012 | 0.625 | 0.141 | 0.059 | 0.2 |
| AAAAGT | -0.543 | -1.5 | -1.31 | -0.802 | -0.103 |
| GTAGAT | -0.321 | -0.12 | -0.363 | -0.358 | -0.137 |
| GAGGCA | 1.12 | 0.033 | 1.52 | 0.772 | 1.04 |
| GGAAAA | 0.286 | -1.96 | -1.14 | 0.119 | 0.973 |
| GTAAAG | -0.31 | -0.821 | -0.841 | -0.48 | 0.029 |
| ACACTA | 1.88 | 1.86 | 0.909 | 2.15 | 1.64 |
| TCAGAG | -0.612 | 0.584 | 0.41 | -0.541 | -0.453 |
| CAAGTA | -0.037 | 0.112 | -0.053 | -0.2 | 0.041 |
| GTTGAT | -0.048 | 0.055 | -0.228 | -0.079 | 0.097 |
| CATGCG | -0.382 | 0.528 | 0.545 | -0.457 | -0.427 |
| CTGGTC | 0.008 | 0.238 | 0.167 | -0.016 | -0.101 |

| Sequence | 6-mer SELEX enrichment z-score [1] | 6-mer SELEX enrichment z-score [2] | 6-mer SELEX enrichment z-score [3] | 6-mer SELEX enrichment z-score [4] | 6-mer SELEX enrichment z-score [5] |
| --- | --- | --- | --- | --- | --- |
| CTCCAG | -0.6 | -0.031 | -0.227 | -0.545 | -0.749 |
| GGTCCC | -0.714 | 0.091 | 0.082 | -0.582 | -0.842 |
| TAGGTG | 0.176 | 0.302 | 0.12 | 0.202 | 0.396 |
| GTCCTG | -0.264 | -0.07 | -0.201 | -0.304 | -0.43 |
| CCCGCC | -1 | -0.53 | -0.652 | -0.576 | -1.63 |
| CTTTAG | 0.093 | 0.216 | -0.066 | 0.093 | 0.218 |
| TATCTT | 0.279 | 0.453 | 0.136 | 0.296 | 0.366 |
| CCGTAT | -0.091 | -0.202 | -0.126 | -0.017 | -0.146 |
| GTTAAT | 0.262 | 0.001 | -0.093 | 0.204 | 0.519 |
| GGCCAA | 0.669 | -0.254 | 0.699 | 0.425 | 1.15 |
| CTCTGC | -0.478 | 0.191 | -0.101 | -0.273 | -0.551 |
| TTATTT | 1.31 | 0.458 | 0.432 | 1.15 | 1.72 |
| TGGCCC | -0.333 | -0.268 | 0.008 | -0.204 | -0.653 |
| CTGTCA | 0.389 | 0.291 | 0.381 | 0.251 | 0.017 |
| CCCCTA | -0.296 | -0.64 | -0.749 | -0.199 | -0.812 |
| CGAAGC | -1.71 | -0.729 | -0.792 | -1.53 | -1.61 |
| AGGGCT | 0.04 | 0.292 | 0.32 | 0.205 | 0.363 |
| CACGAT | 0.522 | 0.017 | 0.334 | 0.391 | 0.343 |
| AGATCC | -0.464 | -0.455 | -0.696 | -0.46 | -0.657 |
| CGGATA | 0.203 | -0.406 | -0.089 | 0.08 | 0.399 |
| ACACCA | 0.438 | 1.99 | 0.497 | 0.615 | -0.651 |
| GAGTTC | -0.176 | 0.187 | -0.014 | -0.176 | -0.066 |

| Sequence | 6-mer SELEX enrichment z-score [1] | 6-mer SELEX enrichment z-score [2] | 6-mer SELEX enrichment z-score [3] | 6-mer SELEX enrichment z-score [4] | 6-mer SELEX enrichment z-score [5] |
| --- | --- | --- | --- | --- | --- |
| ATACTA | 1.44 | 0.171 | 0.174 | 1.47 | 1.77 |
| ATCATT | 1.82 | 2.43 | 2.28 | 1.67 | 1.78 |
| CTTCGC | 0.032 | 0.219 | -0.04 | 0.005 | -0.25 |
| CTACCG | -0.615 | -0.62 | -0.613 | -0.454 | -0.906 |
| ACTGCA | 1.14 | 0.061 | 0.704 | 1.31 | 0.377 |
| GTTTCT | -0.115 | 0.496 | 0.066 | 0.011 | 0.076 |
| ATAAGT | 0.801 | -0.11 | 0.109 | 0.523 | 1.09 |
| CATTGG | 0.045 | 0.71 | 0.56 | 0.036 | 0.046 |
| AGTTGA | -0.334 | -0.31 | -0.468 | -0.469 | -0.245 |
| GCTGAC | -0.623 | -0.261 | -0.403 | -0.582 | -0.741 |
| TTTCGG | -0.021 | 0.336 | 0.225 | -0.046 | 0.186 |
| TATCCG | -0.421 | -0.259 | -0.343 | -0.302 | -0.499 |
| TCCAGA | -0.173 | -0.309 | -0.328 | -0.235 | -0.343 |
| AAGGGA | 0.812 | -0.817 | -0.342 | 0.671 | 1 |
| GAGATC | -0.235 | -0.287 | -0.16 | -0.215 | -0.061 |
| CGACGT | -1.76 | -0.376 | -0.927 | -1.62 | -1.54 |
| ATTACA | 2.27 | 0.979 | 1.27 | 2.71 | 2.77 |
| AACGGT | -0.435 | -0.568 | -0.455 | -0.71 | -0.439 |
| TGTAAT | 0.665 | -0.061 | -0.101 | 0.466 | 0.962 |
| CCACCT | -0.853 | -0.413 | -0.845 | -0.748 | -1.31 |
| TTAATA | 1.55 | -0.12 | 0.195 | 1.42 | 2.42 |
